From the supplement of paper PMC8728848
The other results are listed elsewhere or left out.

Experiments:
Assay in all cases: glycan array binding signal (z-score within array); higher = stronger binding
Conditions in all cases: glycan notation: IUPAC condensed, linker removed; mutation: N288D, K313I
GalNAc(b1-4)GlcNAc = molecular target: GalNAc(b1-4)GlcNAc
Procedure, shortened: (§1)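 Glycan array binding is given as a within-array Z-score, which can be read as non-binding when negative. The arrays, 3228 of them, came from the Consortium for Functional Glycomics database and were retained only where the protein sequence was available. Z-scores were averaged across arrays of the same protein sequence at different concentrations or buffers and across linkers.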

[1] = molecular target: GalNAc(b1-4)GlcNAc(b1-2)Man
Procedure, shortened: as §1

[2] = molecular target: GalNAc(b1-4)GlcNAc(b1-2)Man(a1-3)[GalNAc(b1-4)GlcNAc(b1-2)Man(a1-6)]Man(b1-4)GlcNAc(b1-4)GlcNAc
Procedure, shortened: as §1

[3] = molecular target: GalNAc(b1-4)GlcNAc(b1-3)GalNAc(b1-4)GlcNAc
Procedure, shortened: as §1

GalNAc(b1-4)GlcNAc6S = molecular target: GalNAc(b1-4)GlcNAc6S
Procedure, shortened: as §1

GalNAc(b1-6)GalNAc = molecular target: GalNAc(b1-6)GalNAc
Procedure, shortened: as §1

GalNAc3S(b1-4)GlcNAc = molecular target: GalNAc3S(b1-4)GlcNAc
Procedure, shortened: as §1

GalNAc3S(b1-4)GlcNAc3S = molecular target: GalNAc3S(b1-4)GlcNAc3S
Procedure, shortened: as §1

[4] = molecular target: GalNAc3S(b1-4)[Fuc(a1-3)]GlcNAc
Procedure, shortened: as §1

GalNAc4S6S(b1-4)GlcNAc = molecular target: GalNAc4S6S(b1-4)GlcNAc
Procedure, shortened: as §1

GalNAc6S(b1-4)GlcNAc = molecular target: GalNAc6S(b1-4)GlcNAc
Procedure, shortened: as §1

Glc(a1-4)Glc = molecular target: Glc(a1-4)Glc
Procedure, shortened: as §1

[5] = molecular target: Glc(a1-4)Glc(a1-4)Glc(a1-4)Glc
Procedure, shortened: as §1

Glc(a1-6)Glc(a1-6)Glc = molecular target: Glc(a1-6)Glc(a1-6)Glc
Procedure, shortened: as §1

[6] = molecular target: Glc(a1-6)Glc(a1-6)Glc(a1-6)Glc
Procedure, shortened: as §1

Glc(b1-4)Glc = molecular target: Glc(b1-4)Glc
Procedure, shortened: as §1

Glc(b1-6)Glc = molecular target: Glc(b1-6)Glc
Procedure, shortened: as §1

GlcA(b1-3)Gal = molecular target: GlcA(b1-3)Gal
Procedure, shortened: as §1

GlcA(b1-3)GlcNAc = molecular target: GlcA(b1-3)GlcNAc
Procedure, shortened: as §1

GlcA(b1-6)Gal = molecular target: GlcA(b1-6)Gal
Procedure, shortened: as §1

[7] = molecular target: GlcA3S(b1-3)Gal(b1-4)GlcNAc(b1-2)Man
Procedure, shortened: as §1

[8] = molecular target: GlcA3S(b1-3)Gal(b1-4)GlcNAc(b1-3)Gal(b1-4)Glc
Procedure, shortened: as §1

[9] = molecular target: GlcNAc(a1-3)Gal(b1-4)GlcNAc
Procedure, shortened: as §1

[10] = molecular target: GlcNAc(a1-4)Gal(b1-3)GlcNAc
Procedure, shortened: as §1

[11] = molecular target: GlcNAc(a1-4)Gal(b1-4)GalNAc
Procedure, shortened: as §1

[12] = molecular target: GlcNAc(a1-4)Gal(b1-4)GlcNAc
Procedure, shortened: as §1

[13] = molecular target: GlcNAc(a1-4)Gal(b1-4)GlcNAc(b1-3)Gal(b1-4)Glc
Procedure, shortened: as §1

[14] = molecular target: GlcNAc(a1-4)Gal(b1-4)GlcNAc(b1-3)Gal(b1-4)GlcNAc
Procedure, shortened: as §1

[15] = molecular target: GlcNAc(a1-4)Gal(b1-4)GlcNAc(b1-3)Gal(b1-4)GlcNAc(b1-3)Gal(b1-4)GlcNAc
Procedure, shortened: as §1

[16] = molecular target: GlcNAc(a1-4)Gal(b1-4)GlcNAc(b1-3)Gal(b1-4)[Fuc(a1-3)]GlcNAc(b1-3)Gal(b1-4)[Fuc(a1-3)]GlcNAc
Procedure, shortened: as §1

[17] = molecular target: GlcNAc(a1-6)Gal(b1-4)GlcNAc
Procedure, shortened: as §1

[18] = molecular target: GlcNAc(b1-2)Gal(b1-3)GalNAc
Procedure, shortened: as §1

[19] = molecular target: GlcNAc(b1-2)Man(a1-3)[GlcNAc(b1-2)Man(a1-6)]Man(b1-4)GlcNAc(b1-4)GlcNAc
Procedure, shortened: as §1

[20] = molecular target: GlcNAc(b1-2)Man(a1-3)[GlcNAc(b1-2)Man(a1-6)]Man(b1-4)GlcNAc(b1-4)[Fuc(a1-6)]GlcNAc
Procedure, shortened: as §1

[21] = molecular target: GlcNAc(b1-2)Man(a1-3)[GlcNAc(b1-4)][GlcNAc(b1-2)Man(a1-6)]Man(b1-4)GlcNAc(b1-4)GlcNAc
Procedure, shortened: as §1

[22] = molecular target: GlcNAc(b1-2)Man(a1-3)[GlcNAc(b1-4)][GlcNAc(b1-2)Man(a1-6)]Man(b1-4)GlcNAc(b1-4)[Fuc(a1-6)]GlcNAc
Procedure, shortened: as §1

[23] = molecular target: GlcNAc(b1-2)[GlcNAc(b1-4)]Man(a1-3)[GlcNAc(b1-2)Man(a1-6)]Man(b1-4)GlcNAc(b1-4)GlcNAc
Procedure, shortened: as §1

[24] = molecular target: GlcNAc(b1-2)[GlcNAc(b1-4)]Man(a1-3)[GlcNAc(b1-4)][GlcNAc(b1-2)Man(a1-6)]Man(b1-4)GlcNAc(b1-4)GlcNAc
Procedure, shortened: as §1

[25] = molecular target: GlcNAc(b1-2)[GlcNAc(b1-4)]Man(a1-3)[GlcNAc(b1-4)][GlcNAc(b1-2)[GlcNAc(b1-6)]Man(a1-6)]Man(b1-4)GlcNAc(b1-4)GlcNAc
Procedure, shortened: as §1

[26] = molecular target: GlcNAc(b1-2)[GlcNAc(b1-4)]Man(a1-3)[GlcNAc(b1-4)][GlcNAc(b1-2)[GlcNAc(b1-6)]Man(a1-6)]Man(b1-4)GlcNAc(b1-4)[Fuc(a1-6)]GlcNAc
Procedure, shortened: as §1

[27] = molecular target: GlcNAc(b1-2)[GlcNAc(b1-6)]Man(a1-6)[GlcNAc(b1-2)Man(a1-3)]Man(b1-4)GlcNAc(b1-4)GlcNAc
Procedure, shortened: as §1

[28] = molecular target: GlcNAc(b1-2)[GlcNAc(b1-6)]Man(a1-6)[GlcNAc(b1-2)Man(a1-3)]Man(b1-4)GlcNAc(b1-4)[Fuc(a1-6)]GlcNAc
Procedure, shortened: as §1

[29] = molecular target: GlcNAc(b1-2)[GlcNAc(b1-6)]Man(a1-6)[GlcNAc(b1-4)][GlcNAc(b1-2)Man(a1-3)]Man(b1-4)GlcNAc(b1-4)GlcNAc
Procedure, shortened: as §1

GlcNAc(b1-3)Fuc = molecular target: GlcNAc(b1-3)Fuc
Procedure, shortened: as §1

GlcNAc(b1-3)Gal = molecular target: GlcNAc(b1-3)Gal
Procedure, shortened: as §1

B1: Langerin (Homo sapiens), Q9UJ71 (protein)
chain: STLNAQIPELKSDLEKASALNTKIRALQGSLENMSKLLKRQNDILQVVSQGWKYFKGNFYYFSLIPKTWYSAEQFCVSRNSHLTSVTSESEQEFLYKTAGGLIYWIGLTKAGMEGDWSWVDDTPFNKVQSARFWIPGEPNDAGNNEHCGNIKAPSLQAWNDAPCDITFLFICKRPYVPSEP
glycan array binding signal (z-score) (GalNAc(b1-4)GlcNAc): 0.446 | glycan array binding signal (z-score) [1]: -0.178 | glycan array binding signal (z-score) [2]: -0.176 | glycan array binding signal (z-score) [3]: -0.208 | glycan array binding signal (z-score) (GalNAc(b1-4)GlcNAc6S): -0.205 | glycan array binding signal (z-score) (GalNAc(b1-6)GalNAc): -0.255 | glycan array binding signal (z-score) (GalNAc3S(b1-4)GlcNAc): -0.312 | glycan array binding signal (z-score) (GalNAc3S(b1-4)GlcNAc3S): -0.298 | glycan array binding signal (z-score) [4]: 0.095 | glycan array binding signal (z-score) (GalNAc4S6S(b1-4)GlcNAc): -0.292 | glycan array binding signal (z-score) (GalNAc6S(b1-4)GlcNAc): -0.222 | glycan array binding signal (z-score) (Glc(a1-4)Glc): -0.294 | glycan array binding signal (z-score) [5]: -0.105 | glycan array binding signal (z-score) (Glc(a1-6)Glc(a1-6)Glc): -0.212 | glycan array binding signal (z-score) [6]: -0.138 | glycan array binding signal (z-score) (Glc(b1-4)Glc): -0.223 | glycan array binding signal (z-score) (Glc(b1-6)Glc): -0.225 | glycan array binding signal (z-score) (GlcA(b1-3)Gal): -0.159 | glycan array binding signal (z-score) (GlcA(b1-3)GlcNAc): -0.204 | glycan array binding signal (z-score) (GlcA(b1-6)Gal): 0.025 | glycan array binding signal (z-score) [7]: -0.279 | glycan array binding signal (z-score) [8]: -0.12 | glycan array binding signal (z-score) [9]: -0.26 | glycan array binding signal (z-score) [10]: -0.098 | glycan array binding signal (z-score) [11]: -0.031 | glycan array binding signal (z-score) [12]: -0.257 | glycan array binding signal (z-score) [13]: -0.192 | glycan array binding signal (z-score) [14]: -0.155 | glycan array binding signal (z-score) [15]: -0.163 | glycan array binding signal (z-score) [16]: 0.433 | glycan array binding signal (z-score) [17]: -0.229 | glycan array binding signal (z-score) [18]: 0.319 | glycan array binding signal (z-score) [19]: -0.132 | glycan array binding signal (z-score) [20]: 0.186 | glycan array binding signal (z-score) [21]: -0.253 | glycan array binding signal (z-score) [22]: 1.18 | glycan array binding signal (z-score) [23]: 0.028 | glycan array binding signal (z-score) [24]: 0.175 | glycan array binding signal (z-score) [25]: -0.027 | glycan array binding signal (z-score) [26]: 1.91 | glycan array binding signal (z-score) [27]: -0.239 | glycan array binding signal (z-score) [28]: 0.347 | glycan array binding signal (z-score) [29]: 0.046 | glycan array binding signal (z-score) (GlcNAc(b1-3)Fuc): -0.188 | glycan array binding signal (z-score) (GlcNAc(b1-3)Gal): -0.083
